# From paper PMC4336329 (PLoS ONE, 2015)
# Out of some 310,000 compounds screened, about 14,000 (4.5%) showed an effect of 50% or more. The effect is printed as a negative number. This is one part of the list.
# Biological target: human ether-à-go-go-related gene (hERG) potassium channel (human, UniProt Q12809)
# Assay: primary screen, population patch clamp on CHO cells stably expressing hERG
# 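Also: peak tail current of the secondary pulse compared with the same well before compound.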
# Chain of human ether-à-go-go-related gene (hERG) potassium channel (Q12809 whole entry, looked up): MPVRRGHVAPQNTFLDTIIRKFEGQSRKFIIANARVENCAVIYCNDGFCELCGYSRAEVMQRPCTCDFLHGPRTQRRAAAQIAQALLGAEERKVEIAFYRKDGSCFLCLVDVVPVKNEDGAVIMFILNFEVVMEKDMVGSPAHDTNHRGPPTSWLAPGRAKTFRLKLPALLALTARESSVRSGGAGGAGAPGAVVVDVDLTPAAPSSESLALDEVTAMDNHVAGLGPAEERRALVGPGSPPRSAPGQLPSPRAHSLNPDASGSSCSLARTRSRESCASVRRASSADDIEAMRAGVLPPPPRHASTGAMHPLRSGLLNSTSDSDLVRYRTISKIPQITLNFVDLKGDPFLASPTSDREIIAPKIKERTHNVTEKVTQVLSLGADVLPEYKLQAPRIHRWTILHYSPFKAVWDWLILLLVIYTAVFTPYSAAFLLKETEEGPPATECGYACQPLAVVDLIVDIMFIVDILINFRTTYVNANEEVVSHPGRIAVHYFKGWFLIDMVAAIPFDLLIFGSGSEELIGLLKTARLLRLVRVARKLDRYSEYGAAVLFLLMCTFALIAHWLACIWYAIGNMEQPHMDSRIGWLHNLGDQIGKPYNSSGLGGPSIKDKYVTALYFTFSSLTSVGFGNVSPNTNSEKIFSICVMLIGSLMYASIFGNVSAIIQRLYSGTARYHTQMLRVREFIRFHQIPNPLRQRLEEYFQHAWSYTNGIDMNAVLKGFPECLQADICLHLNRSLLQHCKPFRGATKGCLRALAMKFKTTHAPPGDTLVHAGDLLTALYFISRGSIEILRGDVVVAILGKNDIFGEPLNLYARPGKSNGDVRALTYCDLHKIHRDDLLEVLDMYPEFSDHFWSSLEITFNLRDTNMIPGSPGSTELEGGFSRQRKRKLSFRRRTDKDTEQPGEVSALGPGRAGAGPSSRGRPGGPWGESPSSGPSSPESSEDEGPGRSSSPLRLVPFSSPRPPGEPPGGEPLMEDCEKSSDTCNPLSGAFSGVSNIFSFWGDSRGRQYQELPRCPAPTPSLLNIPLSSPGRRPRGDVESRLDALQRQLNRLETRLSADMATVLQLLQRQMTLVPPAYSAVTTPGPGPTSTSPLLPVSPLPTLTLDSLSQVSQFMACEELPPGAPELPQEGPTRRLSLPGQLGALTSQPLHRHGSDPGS
row,Compound,"hERG current change (%, negative = inhibition) at 10uM [%]"
1,O=c1c2ccccc2nnn1CSc1nc2ccccc2c(=O)n1Cc1ccco1,-6.44
2,COc1ccc(C(=O)COC(=O)c2nn(C)cc2Cl)cc1,16
3,CCOc1ccccc1NC(=O)CSc1nc(N)c(C#N)cc1C#N,6
4,CCCCCN(C(=O)CCC(=O)OCC(=O)N1CCC(C)CC1)c1c(N)n(CCCC)c(=O)[nH]c1=O,1.38
5,CN1CCCC1CCNc1ccc2c(=O)c3ccccc3oc2c1 (stereo not shown),-32.5
6,CC(C)N1C(=S)N(Cc2ccco2)C(=O)C1CC(=O)Nc1ccccc1 (stereo not shown),14.9
7,COc1ccc(C(C[N+](=O)[O-])c2c(C)[nH]c3ccccc23)cc1OC (stereo not shown),26.1
8,Cc1nn(CCCC(=O)Nc2cccnc2Cl)c(C)c1[N+](=O)[O-],-2.31
9,COC(=O)c1ccc(C)c(NC(=O)CSc2sc3c(O)cc(=O)[nH]c3c2C#N)c1,-10.2
10,COc1ccccc1OCC(=O)Nc1nc(C)c(C)s1,8.16
11,Cc1noc(/C=C/c2ccco2)c1S(=O)(=O)N1CCC(C(=O)N2CCc3ccccc3C2)CC1,-15.5
12,Br.CC(C)(C)C(=O)CNCC(=O)C(C)(C)C,21.9
13,O=C(CN1CCCCCC1)Nc1ccccc1.O=C(O)C(=O)O,10.8
14,CCOC(=O)N1CCN(C(=O)c2ccc(CNS(=O)(=O)c3ccc(OC)cc3)cc2)CC1,-4.84
15,CCCc1nnc(SCC(=O)O)n1/N=C/c1ccc2c(c1)OCO2,-7.5
16,COc1ccc2c(Cl)c(C(=O)NCC3CCCO3)sc2c1Cl (stereo not shown),18.1
17,Cc1cc(NC(=O)c2cc(-c3ccc(O)cc3)on2)no1,15.2
18,Cc1cc(-c2cc(-c3ccccc3)on2)nc(NCC2CC2)n1,15.6
19,COc1cccc(-c2nc(CS(=O)(=O)CC(=O)NC3CCCCCC3)c(C)o2)c1,11.4
20,CC(C)(C)C(=O)Nc1ccc(C(=O)N/N=C/c2ccccc2OC(=O)c2ccccc2)cc1,9.21
21,CCOCCCNC(=O)CCCC1=NS(=O)(=O)c2ccccc2N1,-0.783
22,Cc1ccc(S(=O)(=O)N2CCN(C(=O)CN3C(=O)c4ccccc4C3=O)CC2)c(C)c1,9.02

row,Compound,"hERG current change (%, negative = inhibition) at 10uM [%]"
1,Cc1ccc(SCCN2CCC(NC(=O)OCc3ccccc3)CCC2=O)cc1 (stereo not shown),-50.1
2,COc1ccccc1CN1CCNC(=O)C1CC(=O)NC1CCCCCC1 (stereo not shown),-0.837
3,CCc1ccc(NC(=O)[C@@H](NC(=O)[C@@H]2Cc3ccccc3CN2)C(C)CC)cc1 (stereo partly shown),-13.6
4,CN(C)S(=O)(=O)c1ccc(S(=O)(=O)NC2CCOC(C)(C)C2)cc1 (stereo not shown),-4.07
5,O=C(Nc1ccc(Cl)cc1)c1cccc(NC2=NC3CS(=O)(=O)CC3S2)c1 (stereo not shown),-15.9
6,COC(=O)CCSCC(=O)Nc1nnc(C)s1,1.24
7,COC(=O)Sc1nnc(-c2ccc(Br)cc2)o1,17.4
8,CC1CCN(C(=O)C2(NC(=O)Nc3cccc(F)c3)CCCCC2)CC1,7.6
9,Nc1cc(=O)[nH]c(SCc2nnc(-c3ccccc3)o2)n1,9.97
10,COc1ccc(CCNc2oc(-c3ccc(OC)c(OC)c3)nc2C#N)cc1,15.4
11,CCC1(CC)C(=O)C2=C3C1[C@H](C(=O)OC)C=C(C(=O)OC)C[C@H]3[C@H]1C(=O)NC(=O)[C@H]1[C@H]2C (stereo partly shown),3.57
12,N#Cc1nc(Cc2ccccc2)oc1NCCCn1ccnc1,-31.5
13,Cc1ccc(C(C(=O)Nc2ccc3c(c2)OCO3)N(C)C(=O)/C=C\c2ccc3c(c2)OCO3)cc1 (stereo not shown),-1.83
14,COc1ccccc1COC(=O)c1ccc(S(=O)(=O)N2CCOCC2)cc1,-6.12
15,Cc1nn(C)cc1NC(=O)c1ccc(Br)o1,9.33
16,CC(C)(C)C1CCC(=O)C(C2(O)C(=O)Nc3ccccc32)C1 (stereo not shown),8.51
17,C=CCn1c(Cc2csc(N)n2)nnc1SCC(=O)OCC,-0.614
18,COc1ccc(Cl)cc1NC(=O)CN1C(=O)CC(C)S(=O)(=O)c2ccccc21 (stereo not shown),-11.3
19,NC(=O)C1CCN(C(=O)CCc2nc3sc4c(c3c(=O)[nH]2)CCCC4)CC1,-4.75
20,Cc1cccc(NC(=S)NC2CC3CCC(C2)N3Cc2ccco2)c1 (stereo not shown),-43.5
21,Cc1ccc(NC(=O)c2ccccc2SCC(=O)N2CCCC2)cc1S(=O)(=O)N(C)C,-11.3
22,Cc1ccc(N(C(=O)c2csnn2)C(C(=O)NC2CCCCC2)c2ccncc2)c(C)c1 (stereo not shown),3.19

row,Compound,"hERG current change (%, negative = inhibition) at 10uM [%]"
1,O=C(O)c1ccc(-n2nnnc2Oc2cccc3cccnc23)cc1,11.6
2,O=C(Nc1ccon1)c1sc2cc(Cl)ccc2c1Cl,16.3
3,O=C1C2CC=C(Cl)CC2C(=O)N1CC1Cc2ccccc2CO1 (stereo not shown),-0.878
4,CCOCCCN(C(=O)CCC(=O)Nc1cc(C)on1)C(C(=O)NC(C)(C)CC)c1cccc(OC)c1OC (stereo not shown),1.62
5,Cc1nc2ccccc2c(C)c1C(=O)c1ccccc1.Cl,-3.87
6,COc1ccc(CN2CC[C@H]3C=CC[C@@H](C(=O)N4CCOCC4)[C@H]3C2=O)cc1OC,7.75
7,CCC1Oc2ccccc2N(CC(=O)NCCN2CCc3ccccc3C2)C1=O (stereo not shown),-16.2
8,COc1cc(C)c(C)cc1S(=O)(=O)N1CCCc2ccccc21,1.43
9,CCC/C(=N/NC(=O)c1csc(C)c1C)c1ccc(Cl)s1,15.8
10,CNC(=S)N/N=C(\C)c1ccc(Cl)s1,8.33
11,NC(=O)Oc1cccc(OC(N)=O)c1,18
12,CC/C(=N\NC(=S)Nc1ccccc1)c1c(O)[nH]c(=O)[nH]c1=O,19.4
13,COc1ccc(-c2nc(CS(=O)(=O)CC(=O)NCCCN3CCOCC3)c(C)o2)cc1,-0.647
14,CCC1CCc2c(n(C)c3ccccc3c2=O)O1 (stereo not shown),6.88
15,CN1CCN(CCc2nc3cc(NC(=O)c4ccco4)ccc3n2C)CC1,4.18
16,Cc1ccc(Nc2nc(N)nc(CSc3nccn3C)n2)cc1,-14.2
17,O=C(CN1CCN(S(=O)(=O)c2ccc(F)cc2)CC1)Nc1ccc(F)cc1F,-60.3
18,COc1ccc(N(CC(=O)NC(C)(C)C)C(=O)c2ccco2)cc1,-2.06
19,CN(C)/C=C/C(=O)c1ccncc1,16.3
20,O=C1C(C=Nc2ccccc2O)=C(O)c2ccccc21,-1.8
21,COc1ccc(NC(=S)NCCN2CCC(C)CC2)cc1Cl,-30.5
22,CC1S/C(=N/N=C/c2ccco2)N(Cc2ccccc2)C1=O (stereo not shown),-8.22

row,Compound,"hERG current change (%, negative = inhibition) at 10uM [%]"
1,O=C1NC2(CCCCC2)C(=O)N1/N=C/c1ccc(O)cc1O,-16.7
2,CC(OC(=O)C1=COCCO1)C(=O)Nc1ccccc1C#N (stereo not shown),12.4
3,CC(NS(=O)(=O)c1ccccc1)C(=O)NCCc1ccccn1 (stereo not shown),23.3
4,Cc1sc(/N=C/c2c(O)ccc3ccccc23)c(C#N)c1C,29.9
5,O=C(Nc1nnc(C2CC2)s1)c1cccc(S(=O)(=O)N2CC(c3ccccc3)CC2=O)c1 (stereo not shown),3.34
6,N#Cc1nc(-c2ccc(F)cc2)oc1NCCCn1ccnc1,-49.3
7,COc1ccc(C(=O)CSc2nc3cccnc3n2C)cc1,10.5
8,CC(=O)NCc1ccc(C(=O)COC(=O)COc2ccccc2)s1,10.8
9,O=C(CCC(=O)OCC(=O)c1ccc(-c2ccccc2)cc1)Nc1cccc(Cl)c1,1.65
10,CC(=O)Nc1ccc(OCC(O)Cn2c(CO)nc3ccccc32)cc1 (stereo not shown),12.8
11,c1ccc(-c2noc(COc3ccc4c(c3)OCO4)n2)cc1,13.9
12,Nc1c(C(=O)Nc2ccccc2)c2nc3ccccc3nc2n1-c1ccc(O)cc1,12.5
13,COc1ccccc1Cn1c(=S)[nH]c2cc(C(=O)NCc3cccnc3)ccc2c1=O,30
14,COc1cccc(C(=O)OCC(=O)Nc2sc3c(c2C(N)=O)CCC3)c1O,11.8
15,O=C1C(c2ccc(F)cc2)N(Cc2ccc3c(c2)OCO3)C(=O)CN1C1CCCCCC1 (stereo not shown),-21.2
16,COc1ccc(Oc2nc3ccccc3n(C)c2=O)cc1,-16.8
17,CCC1(C)Cc2c(sc3nc(SCC(=O)c4ccccc4)[nH]c(=O)c23)CO1 (stereo not shown),8.68
18,CCc1cc(C(=O)OC)c(NC(=O)CC2Nc3cc(C)c(C)cc3NC2=O)s1 (stereo not shown),19.3
19,Cc1cc2ncn(C(=O)N3CCOCC3)c2cc1C,16.6
20,C/C(=N\NC(=O)c1cc(-c2ccccn2)nc2ccccc12)c1cccc([N+](=O)[O-])c1,-4.8
21,COC(=O)c1c(NC(=O)c2cccc([N+](=O)[O-])c2)sc(C(N)=O)c1C,5.18
22,O=S(=O)(c1ccccc1F)N1CCCc2ccccc21,-11.7
